Source: the supplement of paper PMC12632987
In all, about 2,300 sequences were measured (“median log2 fold change of GCK-ALFA target abundance (FLAG IP / Myc IP barcode read proportion)”: median about 0.095, lowest 2% from about -0.47 on). Some of the results follow.

B1: LC3A_28_1021 (protein)
chain: SEMEERVKEIEKEIEKAVAAGEEVVVTFTITPEDSLEEVKEAMERLKKIVIEAGKKGKVSLVVDLEKGVSQEKLDVVMEAGDEIEKEAPNANVIIALEEE
B2: LC3A_132_301 (protein)
chain: GEELAKKIKKEVKKLVEEAKKNKDNEEKVEEYFEKIEELLKEAEKKLTPEQKAKVFKETADLLDELSKAFLAAGKEQQALEADGLAIEAESLSLRAEKEI
B3: LC3A_16_527 (protein)
chain: KEEARKTLELLKAAYAALDTDADAFIAKMAEIDPEAAAKLRAAAARPDAKATRYEILAEKLKEFYEEYKDELTEEELAEVENMATAADVEADLERLKLEE
B4: LC3A_45_1983 (protein)
chain: MYKATIDLLVPRELAEEALELAKRFAEELQKELGPELKVDFEKLEESYEETKDEEDVYLELDIYHPDKDVALDAADRIVDRLEEELGGKVAAIISVEEVP
B5: LC3A_free_39_2269 (protein)
chain: SEEELKKAKEEILKLVAPLSKEAQEAVKEILELIEGNVELAKTLLENIEKAKKEGADVEALIKEALKLVKELKEKGASPEEIIKELNELANDFINLIPID
B6: LC3A_free_39_2241 (protein)
chain: SMEELEKLIKEIAEKSGLPYEEVKAKIKEIQEVAGLSDEQMLEIAKAILEAVEAGADGKEILEKSLEIAKELKAEGKSPEEILEAILEYIEDMRNLVPLD
B7: LC3A_free_8_2508 (protein)
chain: MDQSVVDTLVKLLDEMEKKLVEKLKELGASRLDILDIEILIGSAIAEVYDLSDSSMEELLKSLTESLEEIIERAKEISEELAELAKESAEKILKTLEEAS
B8: LC3A_28_1161 (protein)
chain: SAVDESIAAARAAAEAAIAAGEPAVVEIVVTPDTTEEDTEKIIAALEELAARGEEHGLLDILVDVEAGVKQEHIDKIADAAEEIEERYPRVTIIIALDEE
B9: LC3A_free_26_2137 (protein)
chain: SEYIDIALLDEAEELLEKLAKELKKAGPEYKELAEKAEEALKLLEEETLESLKKAKEILEEMIKELKKLLKKDPKFMEEQLKKAEEALELVEEIIKIMES
B10: LC3A_free_39_2208 (protein)
chain: SEEELEKLIKKVAEAGGIDYEYVKKKVEEIQKVAGLTIEQMKEIVEAILKAVEAGADAKEILEEILKIAKELKAAGKTPEEIKEAILETIRDFENLVPLD
B11: LC3A_45_1961 (protein)
chain: MAEAVVLVLVPREEFDRVVAIIREEIERINKEEGLEASVDEEALAAAREEAEREGEGLVEVTIKSEDLNKALDAADRISDRVAERSSPRVATIIEYAEEP
B12: LC3A_45_1996 (protein)
chain: MAKVTIDVYGDGKAVKAFLELVKKRIEELVKKEGLNLKVDEEALEKELKRAEKEEEVSATLTIYSDATQEAIDAILDAIDAAQKEVGPSVSYIISIEDLP
B13: LC3A_3_1861 (protein)
chain: MDEIIEEILKLLKELGRSEETIEKARELAEALKERGYLEALKTLLEKLKELKDVSDEILLDMFEDLLEALKTEDLSEEELIKKIKEEARIALSEHEIEEL
B14: LC3A_28_833 (protein)
chain: SAVDARIAAFLAAAEATKAAGEPGTITMTITSTDTVEEVERLAAAIREAAELISSVPNQSIIVDLDGPISQEKLDILMATADEIEEKYPNVSVIIALPEE
B15: LC3A_free_8_2494 (protein)
chain: NSQKLVDAAVEGLSKMEEELTEKAKKLGADRLDILDLELLIGSAIAEAISLVDESPEKILEAVKESLKEIIEEAKKISEELAKLAEKLSKEILEKLEKLI
B16: LC3A_28_937 (protein)
chain: MTVEEQIEKAIKEAEEAKKEGKPAVITLTLRGDDTQEDVELIIEGIEKIAEILKDIKGSAIIVDVEAGVPQEHIDLIADKGEEIEKKYPNINVIIALDED
B17: LC3A_141_387 (protein)
chain: MKKTFKHTADTDTEQDIFAFFDEVEKELKKMIKESGGKPVKVKVTLKGTNPETGEVVTVKEEFTVTEENVDEAVSGMEIEAVSLLDKVGGTIDITVELEV
B18: LC3A_28_1135 (protein)
chain: SAGVEEAKKQIDKDAERDKNEEEAFLNVTIKSTATVEEAREIMDHVEEEVEKLKHKKKIYVVVTFEEPVSQEVLDTVVEKGEEIEKKFPNVSVVIALPEE
B19: LC3A_free_46_2400 (protein)
chain: YKGIIEIDALFDTKEKGEAFAKDVEKAAKELAEKYGVEIEIEVEIEEEPDGTVFVTIKITARAEDKETLEAFVNDLIDKIEEIAEKYNASVIISYEIEEE
B20: LC3A_3_1363 (protein)
chain: TEALIEATLAALRAAGKSEETIAAVREAMTALAEKGYEEALKVFAEELLAMADLPDELLLEFARDVLAAVEAGKLSEEELIEFIKSEAAVIRSEAEIEEL
B21: LC3A_28_810 (protein)
chain: SEADEIIEKIKKQAEELKNEEDLALIEVNISGSITVEEAKRIMDEVYREAKKLAEKKKVAVVVNLEEPVSQEVLDLIMERAEELEEEIPNVSVIIALPEE
B22: LC3A_free_46_2384 (protein)
chain: PKAVIDIDFGAMSLETAKEIAERIREAAREISEEYGVEVEVEVEIIKDEEGEYYLRVRITVRGEDKEKVKAAVDDLLDRIDEIAEEAGVSYIISVEFIDE
B23: LC3A_127_190 (protein)
chain: NLLEEALRGLREAQELLRKLQKGEISLEEAEKEAKRLLERLEAIAKALADDEVLKEMVEDAKKLLEQAEKAPEEEKKPLLEELFSELALAFALAAVKLEE
B24: LC3A_132_330 (protein)
chain: MEELYEKLKKEIEEKLEEAKENIDDLERVEELLEEIRELLREAEEKVEPEKFRELAEEAARRLEEIADAADAAGKEEVALLADGLRIEAEARAIRAEEKI
B25: LC3A_3_1522 (protein)
chain: MEEIKKEIIELLKEMGADEETIEKAKKAIKLLEERGYEKALKTLLEELKKLKNAPPETIAWFVKDVLELLEKKDLSEEEVTKEIKEIARTAKNDSEIEEL
B26: LC3A_28_1051 (protein)
chain: METEEALEAALAEARAAAAAGEEALITLTIDENDTEEDVELVLETMEEIAEIGKTLPSVTIIVDVDHKNKEEVTKKIADKGEELEKKYPNVTVIIALSEE
B27: LC3A_3_1554 (protein)
chain: MEELKEELLKELKEAGKSEEVLEAAKRAFDALIERGYYEAAKTLAEELREMLDLPDEIVLDFLNDVLELVETEDLDEEELIEEIKRLARIAKNEAEIEEL
B28: LC3A_3_1656 (protein)
chain: MEELIKETLEYLRKKGKSEEVLEAARAAMEALKEKGYEEALKTFAELLKELEHLSDEILLWFAEEVLRLVETEDINEEEMKERIKEIARTAKNAEEIEEL
B29: LC3A_28_1283 (protein)
chain: SELDESIEKALEEAKKAKEAGESAVIEIHIPGGATQEEIEKVIETLYEIAEILKDVKDQAIVISIDSGVKQEHIDKIADAAEEIEKKYPNVTVIIALDED

Biological target: MAP1LC3A, Q9H492
Experiment: median log2 fold change of GCK-ALFA target abundance (FLAG IP / Myc IP barcode read proportion) (log2 ratio); each designed protein is fused to an ALFA-tag nanobody in HEK293 cells to bring the named protein to FLAG-tagged glucokinase (GCK); Myc marks an untargeted standard; higher = target protein stabilised (more abundant)
Details: target protein: 3xFLAG-MCP-GCK-ALFA reporter; HEK293 landing pad (RPLP)
In short: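 Sequencing of reverse-transcribed, amplified circular RNA barcodes from anti-FLAG and anti-Myc immunoprecipitates provided the readout for an ALFA-nanobody-fused binder library recombined into HEK293 landing-pad cells. Those cells were induced with 2 μg mL^−1 doxycycline, transfected with a plasmid expressing a FLAG-tagged target and a Myc-tagged standard, and lysed after 48 h. Target abundance is the per-binder median log2 ratio of FLAG to Myc barcode read proportions. Only barcodes at a proportion of ≥10^−7 in both replicates and binders with ≥3 barcodes per replicate were kept, with a 10^−6 pseudocount added before the two replicates were pooled.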

Binder	median log2 fold change
B1	-0.0699
B2	0.206
B3	0.339
B4	-0.0825
B5	0.2
B6	0.197
B7	-0.0314
B8	0.174
B9	0.15
B10	-0.0317
B11	0.187
B12	0.101
B13	0.247
B14	-0.18
B15	0.385
B16	0.162
B17	-0.054
B18	-0.213
B19	-0.232
B20	0.281
B21	-0.105
B22	0.0164
B23	-0.0433
B24	0.136
B25	0.317
B26	-0.128
B27	0.225
B28	0.479
B29	0.0305
